These are yes or no findings as the source states them, for the method shown. Binding seen in cells or lysates may run through a third protein. Some results given as binding are weak or reduced against the parent protein; the word gives no strength.
B1: SIRT4, transfected (enzyme, UniProt Q9Y6E7 29-314)
chain: IGLFVPASPPLDPEKVKELQRFITLSKRLLVMTGAGISTESGIPDYRSEKVGLYARTDRRPIQHGDFVRSAPIRQRYWARNFVGWPQFSSHQPNPAHWALSTWEKLGKLYWLVTQNVDALHTKAGSRRLTELHGCMDRVLCLDCGEQTPRGVLQERFQVLNPTWSAEAHGLAPDGDVFLSEEQVRSFQVPTCVQCGGHLKPDVVFFGDTVNPDKVDFVHKRVKEADSLLVVGSSLQVYSGYRFILTAWEKKLPIAILNIGPTRSDDLACLKLNSRCGELLPLIDPC
B2: SIRT2, transfected (enzyme, UniProt Q8IXJ6 1-389)
chain: MAEPDPSHPLETQAGKVQEAQDSDSDSEGGAAGGEADMDFLRNLFSQTLSLGSQKERLLDELTLEGVARYMQSERCRRVICLVGAGISTSAGIPDFRSPSTGLYDNLEKYHLPYPEAIFEISYFKKHPEPFFALAKELYPGQFKPTICHYFMRLLKDKGLLLRCYTQNIDTLERIAGLEQEDLVEAHGTFYTSHCVSASCRHEYPLSWMKEKIFSEVTPKCEDCQSLVKPDIVFFGESLPARFFSCMQSDFLKVDLLLVMGTSLQVQPFASLISKAPLSTPRLLINKEKAGQSDPFLGMIMGLGGGMDFDSKKAYRDVAWLGECDQGCLALAELLGWKKELEDLVRREHASIDAQSGAGVPNPSTSASPKKSPPPAKDEARTTEREKPQ
B3: endogenous PLD1 (enzyme, UniProt Q13393 1-1074)
chain: MSLKNEPRVNTSALQKIAADMSNIIENLDTRELHFEGEEVDYDVSPSDPKIQEVYIPFSAIYNTQGFKEPNIQTYLSGCPIKAQVLEVERFTSTTRVPSINLYTIELTHGEFKWQVKRKFKHFQEFHRELLKYKAFIRIPIPTRRHTFRRQNVREEPREMPSLPRSSENMIREEQFLGRRKQLEDYLTKILKMPMYRNYHATTEFLDISQLSFIHDLGPKGIEGMIMKRSGGHRIPGLNCCGQGRACYRWSKRWLIVKDSFLLYMKPDSGAIAFVLLVDKEFKIKVGKKETETKYGIRIDNLSRTLILKCNSYRHARWWGGAIEEFIQKHGTNFLKDHRFGSYAAIQENALAKWYVNAKGYFEDVANAMEEANEEIFITDWWLSPEIFLKRPVVEGNRWRLDCILKRKAQQGVRIFIMLYKEVELALGINSEYTKRTLMRLHPNIKVMRHPDHVSSTVYLWAHHEKLVIIDQSVAFVGGIDLAYGRWDDNEHRLTDVGSVKRVTSGPSLGSLPPAAMESMESLRLKDKNEPVQNLPIQKSIDDVDSKLKGIGKPRKFSKFSLYKQLHRHHLHDADSISSIDSTSSYFNHYRSHHNLIHGLKPHFKLFHPSSESEQGLTRPHADTGSIRSLQTGVGELHGETRFWHGKDYCNFVFKDWVQLDKPFADFIDRYSTPRMPWHDIASAVHGKAARDVARHFIQRWNFTKIMKSKYRSLSYPFLLPKSQTTAHELRYQVPGSVHANVQLLRSAADWSAGIKYHEESIHAAYVHVIENSRHYIYIENQFFISCADDKVVFNKIGDAIAQRILKAHRENQKYRVYVVIPLLPGFEGDISTGGGNALQAIMHFNYRTMCRGENSILGQLKAELGNQWINYISFCGLRTHAELEGNLVTELIYVHSKLLIADDNTVIIGSANINDRSMLGKRDSEMAVIVQDTETVPSVMDGKEYQAGRFARGLRLQCFRVVLGYLDDPSEDIQDPVSDKFFKEVWVSTAARNATIYDKVFRCLPNDEVHNLIQLRDFINKPVLAKEDPIRAEEELKKIRGFLVQFPFYFLSEESLLPSVGTKEAIVPMEVWT

Sequences of proteins named here, by UniProt entry; tags and fusion partners are left off.
UniProt O14939: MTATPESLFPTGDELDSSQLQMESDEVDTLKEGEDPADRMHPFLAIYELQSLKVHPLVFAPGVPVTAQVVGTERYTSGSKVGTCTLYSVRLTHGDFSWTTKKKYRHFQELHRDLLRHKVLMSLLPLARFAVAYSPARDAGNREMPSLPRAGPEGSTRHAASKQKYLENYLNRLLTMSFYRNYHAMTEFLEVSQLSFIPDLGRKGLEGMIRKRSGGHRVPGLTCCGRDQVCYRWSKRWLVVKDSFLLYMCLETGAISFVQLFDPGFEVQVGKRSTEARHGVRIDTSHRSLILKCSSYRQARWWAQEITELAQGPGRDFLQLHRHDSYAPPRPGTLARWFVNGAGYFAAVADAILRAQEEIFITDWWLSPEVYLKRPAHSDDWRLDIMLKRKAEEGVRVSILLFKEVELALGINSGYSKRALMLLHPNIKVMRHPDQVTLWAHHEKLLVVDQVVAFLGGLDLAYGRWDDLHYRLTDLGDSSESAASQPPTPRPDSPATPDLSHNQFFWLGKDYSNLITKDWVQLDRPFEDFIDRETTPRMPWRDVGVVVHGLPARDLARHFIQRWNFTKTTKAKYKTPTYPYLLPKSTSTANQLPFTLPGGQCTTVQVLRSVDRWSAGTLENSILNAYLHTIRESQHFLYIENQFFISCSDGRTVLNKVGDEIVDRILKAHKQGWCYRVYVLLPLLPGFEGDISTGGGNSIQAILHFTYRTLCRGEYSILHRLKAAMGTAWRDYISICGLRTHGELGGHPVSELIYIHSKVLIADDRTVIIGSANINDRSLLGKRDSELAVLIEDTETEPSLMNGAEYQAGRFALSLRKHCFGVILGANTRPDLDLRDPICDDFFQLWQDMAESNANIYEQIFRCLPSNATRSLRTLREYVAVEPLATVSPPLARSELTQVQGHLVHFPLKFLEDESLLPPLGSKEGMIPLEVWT
UniProt Q8N6T7: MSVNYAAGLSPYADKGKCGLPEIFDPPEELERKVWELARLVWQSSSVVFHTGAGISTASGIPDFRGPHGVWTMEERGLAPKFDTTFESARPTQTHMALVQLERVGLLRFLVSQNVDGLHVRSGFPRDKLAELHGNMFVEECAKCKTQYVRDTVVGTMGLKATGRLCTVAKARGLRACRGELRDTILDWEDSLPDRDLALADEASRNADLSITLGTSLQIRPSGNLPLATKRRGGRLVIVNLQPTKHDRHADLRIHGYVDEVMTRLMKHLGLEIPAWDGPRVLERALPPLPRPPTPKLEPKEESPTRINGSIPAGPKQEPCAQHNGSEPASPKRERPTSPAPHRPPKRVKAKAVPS
UniProt Q9NRC8: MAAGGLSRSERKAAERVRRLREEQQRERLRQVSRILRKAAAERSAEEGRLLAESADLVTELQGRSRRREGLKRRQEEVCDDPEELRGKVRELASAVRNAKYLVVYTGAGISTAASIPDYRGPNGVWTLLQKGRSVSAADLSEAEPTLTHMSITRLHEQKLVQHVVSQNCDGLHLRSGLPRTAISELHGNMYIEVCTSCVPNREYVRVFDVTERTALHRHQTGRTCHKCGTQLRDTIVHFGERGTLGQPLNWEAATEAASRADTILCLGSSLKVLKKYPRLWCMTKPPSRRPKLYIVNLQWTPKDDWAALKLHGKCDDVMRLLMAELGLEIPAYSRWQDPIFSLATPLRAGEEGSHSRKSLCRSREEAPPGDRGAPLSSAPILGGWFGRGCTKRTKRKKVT
UniProt Q96EB6: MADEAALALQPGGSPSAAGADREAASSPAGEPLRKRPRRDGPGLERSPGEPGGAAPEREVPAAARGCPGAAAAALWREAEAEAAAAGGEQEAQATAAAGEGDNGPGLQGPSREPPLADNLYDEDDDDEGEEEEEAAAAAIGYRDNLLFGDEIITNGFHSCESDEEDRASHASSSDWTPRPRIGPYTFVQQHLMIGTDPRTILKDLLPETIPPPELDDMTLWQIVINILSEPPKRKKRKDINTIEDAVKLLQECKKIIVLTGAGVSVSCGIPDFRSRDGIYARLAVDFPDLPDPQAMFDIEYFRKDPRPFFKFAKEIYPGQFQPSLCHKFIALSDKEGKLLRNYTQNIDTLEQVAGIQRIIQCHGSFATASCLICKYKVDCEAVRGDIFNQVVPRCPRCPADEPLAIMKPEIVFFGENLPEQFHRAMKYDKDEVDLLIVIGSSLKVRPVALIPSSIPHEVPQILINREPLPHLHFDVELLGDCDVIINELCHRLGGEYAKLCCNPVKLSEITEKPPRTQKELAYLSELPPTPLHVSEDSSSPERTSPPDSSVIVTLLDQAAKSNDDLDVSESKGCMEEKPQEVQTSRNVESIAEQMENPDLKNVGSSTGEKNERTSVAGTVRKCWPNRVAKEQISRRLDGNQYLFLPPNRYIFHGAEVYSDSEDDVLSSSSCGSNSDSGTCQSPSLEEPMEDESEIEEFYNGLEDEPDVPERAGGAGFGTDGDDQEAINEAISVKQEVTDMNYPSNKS

Biological target: phospholipase D2 (PLD2), wild type, transfected (human) (UniProt O14939)
Experiment: co-IP; HEK293 cells cotransfected with PLD2 and SIRT constructs (Fig. 1b, 2a, 2c); lysates immunoprecipitated and immunoblotted with the indicated antibodies

Molecule | binding
SIRT6, transfected (from UniProt Q8N6T7 1-355) (enzyme) | no binding
SIRT7, transfected (from UniProt Q9NRC8 1-400) (enzyme) | no binding
B1 | no binding
B2 | no binding

Biological target: endogenous SIRT1 (human (endogenous in HCT116, HT29, A549)) (UniProt Q96EB6)
Experiment: co-IP; endogenous proteins in colorectal cancer cells ('HT119', HT29) and A549 cells; immunoprecipitates captured by anti-SIRT1 and anti-PLD antibodies, nonimmune IgG as control

Molecule | binding
endogenous PLD2 (from UniProt O14939 1-933) (enzyme) | binds
B3 | no binding
